Results: PubChem BioAssay AID504832 (National Center for Advancing Translational Sciences (NCATS), 2011)
The whole screen tested about 310,000 compounds, of which about 18,000 (5.8%) were called active. The inconclusive results got no clear call from the source; some entries with a clear call stand among them for comparison. The call rests on the fitted dose curve; in most records, active means well fitted inhibition curve with a large enough effect; inconclusive means small, poorly fitted or top-dose-only effect, or another doubt; inactive means no such curve, though single readings can be large or run the other way. No potency is given beside an inconclusive call; the fits are too rough.

Test: Primary qHTS for delayed death inhibitors of the malarial parasite plastid, 48 hour incubation
Details: P. falciparum luciferase growth in erythrocytes; series mostly up to 28.7 µM; activity change, negative = inhibition: at the top concentration
Procedure, shortened: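 Growth was read as firefly luciferase luminescence after a 48 h, 37 C, 5% CO2 exposure of compounds to reporter-bearing P. falciparum cultures (0.1% parasitemia, 2% hematocrit final) in Albumax-supplemented RPMI 1640.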
On the % scale 0 is the no-effect control and ±100 the full control effect; potency means the concentration at half of the fitted maximal effect; tags describe the fitted curve by direction and shape.

Row | SMILES | Potency | activity change, negative = inhibition
1 | O=C(CSc1nnc2c(n1)[nH]c1ccc(F)cc12)OCc1ccccc1 | inconclusive [inhibitor, partial curve, poor fit] | 
2 | COc1ccc(-c2[nH]c(-c3cc(OC)c4c(c3)OCO4)nc2-c2ccccc2)cc1 | active: 4.15 µM | 
3 | Clc1ccc(-c2c[n+](Cc3cccc(Cl)c3)c3n2CCC3)cc1 | active: 1.85 µM | 
4 | Cc1ccc(COc2ccc(CNCCCN3CCCCCC3=O)cc2)cc1 | inconclusive [inhibitor, partial curve, poor fit] | 
5 | COCCn1c(SCC(=O)Nc2cc(C)on2)nc2ccccc2c1=O | inconclusive [inhibitor, single point] | 
6 | O=C(N/N=C/c1cc2c(cc1Br)OCO2)c1cc2ccccc2o1 | inconclusive [inhibitor, single point] | 
7 | Cc1ccc(C(=O)Nc2c(C#N)c(C)c(C)n2Cc2ccccc2)cc1 | inconclusive [inhibitor, single point] | 
8 | COc1ccc(Nc2cc(C(=O)NC3CCCC3)c3ccccc3n2)c(OC)c1 |  | inactive: -13.8%
9 | O=C(CNS(=O)(=O)c1ccc(Cl)cc1)NC1CCCCC1 | inconclusive [inhibitor, single point] | 
10 | Cc1c(C(=O)NCC2COc3ccccc3O2)oc2ccc(S(=O)(=O)N3CC(C)CC(C)C3)cc12 (stereo not given) | active: 8.28 µM | 
11 | COc1cccc(C2=NOC(C(=O)N3CCOCC3)C2)c1 (stereo not given) |  | inactive: 159%
12 | COc1ccc(N2CCN(C(=O)c3ccc4c(c3)NC(=O)C(CSCc3ccc(C)cc3)N4)CC2)cc1 (stereo not given) |  | inactive: -9.88%
13 | O=C(N/N=C/c1cccc(O)c1)N/N=C/c1cccc(O)c1 | inconclusive [inhibitor, full curve, poor fit] | 
14 | CC1Nc2ncnc(N3CCOCC3)c2N(Cc2ccc(Cl)cc2)C1=O (stereo not given) | inconclusive [inhibitor, single point] | 
15 | CCOC(=O)c1cc(C)sc1NC(=O)CSC1=NCCS1 | inconclusive [inhibitor, partial curve, poor fit] | 
16 | Oc1ccc(Nc2ccnc3cc(Cl)ccc23)cc1 | active: 1.04 µM | 
17 | CC(C)CCC(=O)OC1CCC2C3CCC4=CC(=O)CC[C@]4(C)C3CC[C@]12C (stereo not given in full) | active: 13.5 µM | 
18 | Cc1cccc(C2c3[nH]c4ccccc4c3CCN2Cc2cccn2-c2ncccn2)c1 (stereo not given) | inconclusive [inhibitor, single point] | 
19 | COc1cccc(-c2cc(N)nn2C(=O)Nc2ccc(Cl)cc2)c1 | inconclusive [inhibitor, single point] | 
20 | Cc1cccc(N(C(=O)c2sc(C)nc2C)C(C(=O)NCc2ccco2)c2ccccc2)c1 (stereo not given) | inconclusive [inhibitor, single point] | 
21 | O=C(CCS(=O)(=O)c1ccccc1)N1CCOCC1 |  | inactive: 56%
22 | O=C(CCN1C(=O)C2CCCCC2C1=O)NNC(=O)c1cccc(Cl)c1 (stereo not given) |  | inactive: 14.3%
23 | CCn1cc(S(=O)(=O)NCCc2ccc(F)cc2)cn1 |  | inactive: 21.3%

Row | SMILES | Potency | activity change, negative = inhibition
24 | OCC1(Cc2ccccc2)CCCN(Cc2ccc(-c3ccco3)cc2)C1 (stereo not given) | inconclusive [inhibitor, single point] | 
25 | O=S(=O)(c1ccc2c(c1)N(Cc1ccc(Cl)cc1)C1CCCN21)N1CCOCC1 (stereo not given) | inconclusive [inhibitor, partial curve, poor fit] | 
26 | O=C(Cc1ccc([N+](=O)[O-])cc1)N1CCN(c2ccc([N+](=O)[O-])cc2)CC1 | inconclusive [inhibitor, partial curve] | 
27 | CCO[C@H]1OC(C(=O)N2CCN(C)CC2)=C[C@@H](C(C)(C)C)[C@@H]1CCCO |  | inactive: 28.5%
28 | COc1ccc(Cn2nnnc2C(C(C)C)N2CCc3ccccc32)cc1 (stereo not given) | inconclusive [inhibitor, partial curve] | 
29 | O=C(Nc1ccc(N2CCN(C(=O)c3ccco3)CC2)c(Cl)c1)c1cc2ccccc2o1 | active: 2.94 µM | 
30 | CCc1cc2c(=O)c(-c3nc4ccccc4n3C)c(C)oc2c(CN2CCN(C)CC2)c1O | inconclusive [inhibitor, partial curve] | 
31 | COc1cc(C(=O)N2CCN(C(=O)C(Cc3cc(C)ccc3C)NC(C)=O)CC2)cc(OC)c1OC (stereo not given) | inconclusive [inhibitor, single point] | 
32 | CC(C)C(NC(=O)c1cccc(S(=O)(=O)N2CCOCC2)c1)C(=O)NCc1ccc(Cl)cc1 (stereo not given) | inconclusive [inhibitor, single point] | 
33 | COC(=O)c1c(NC(=O)Cc2ccccc2)sc2c1CCN(C(C)C)C2 |  | inactive: -7.96%
34 | O=C(CSc1nc2ccccc2c(=O)n1-c1ccc(F)cc1)Nc1ccc(Cl)c(S(=O)(=O)N2CCOCC2)c1 | active: 9.28 µM | 
35 | COc1ccc(-n2c(C)cc(/C=C3/SC(=S)N(C)C3=O)c2C)cc1 |  | inactive: 41.3%
36 | COc1ccc(CNC(=O)C2CCN(S(=O)(=O)N3CCOCC3)CC2)cc1 |  | inactive: 2.02%
37 | O=C(O)[C@H]1CCC(=O)N1Cc1ccco1 |  | inactive: 13.1%
38 | c1ccc(CN2CCN(c3ncnc4nc[nH]c34)CC2)cc1 |  | inactive: 1.54%
39 | O=C(Nc1ccc2c(c1)OCCO2)c1ccc(NC(=O)C2CCCO2)cc1 (stereo not given) |  | inactive: 77.7%
40 | COc1cc(NC(=O)C2=C(C)OCCS2)c(Cl)cc1C(=O)NCCN1CCN(C)CC1 | inconclusive [inhibitor, partial curve, poor fit] | 
41 | CCOc1ccc(N(CC(=O)NCCSCc2ccco2)S(=O)(=O)c2ccc(C)cc2)cc1 | inconclusive [inhibitor, single point] | 
42 | CCn1c2ccccc2c2cc(/C=N/n3c(-c4cc(C)[nH]n4)n[nH]c3=S)ccc21 | inconclusive [inhibitor, full curve, poor fit] | 
43 | O=c1oc(-c2cccc(C(F)(F)F)c2)nn1-c1ccc(C(F)(F)F)cn1 | inconclusive [inhibitor, single point] | 
44 | COCCCNC(=O)c1ccc([N+](=O)[O-])cc1 |  | inactive: 30%
45 | O=C(Nc1ccc(Cl)cc1N1CCOCC1)C1CC1 | inconclusive [inhibitor, partial curve, poor fit] | 
